From the supplement of paper PMC4967469
The IC50 comes from the fitted curve, where viability falls to half of the control; a fit beyond the top or the lowest dose is shown as a bound at that dose. AUC is the area under the same curve over the 256-fold range up to the top dose, as a fraction; values near 1 show little effect. Any top dose called inferred was derived from the fitted curves, not read from the paper. For part of these data: An entry number marks a drug with two screens in the source, which often give different values.

Experiments:
Test in all cases: Viability of human cancer cell lines after 72 h of drug (GDSC screen)
AZD6482 = compound: Cc1cc([C@@H](C)Nc2ccccc2C(=O)O)c2nc(N3CCOCC3)cc(=O)n2c1 [AZD6482]
Method: (§1)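 Human cancer cell lines in 384-well plates, medium with 10% serum, drug for 72 h over a 256-fold dose range (nine 2-fold or five 4-fold steps up to the top dose). Adherent lines were fixed and stained with the nucleic acid dye Syto60, suspension lines read with resazurin; signal relative to control wells, capped at 0 and 100%. One two-parameter sigmoid per drug and line, fitted in a mixed model over all curves with the slope shared within a line.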

MLN4924 = compound: NS(=O)(=O)OC[C@@H]1C[C@@H](n2ccc3c(N[C@H]4CCc5ccccc54)ncnc32)C[C@@H]1O [MLN4924]; details: top dose 1 µM; top dose inferred
Method: as §1

BMN-673 = compound: Cn1ncnc1[C@H]1c2n[nH]c(=O)c3cc(F)cc(c23)N[C@@H]1c1ccc(F)cc1 [BMN-673]; details: top dose 10 µM; top dose inferred
Method: as §1

[1] = top dose 5 µM, screen: GDSC drug entry 1066, top dose inferred
[2] = top dose 5.12 µM, screen: GDSC drug entry 156

| Cell Line | AUC (AZD6482; [1]) | IC50 (AZD6482; [1]) [µM] | AUC (MLN4924) | IC50 (MLN4924) [µM] | AUC (BMN-673) | IC50 (BMN-673) [µM] | AUC (AZD6482; [2]) | IC50 (AZD6482; [2]) [µM] |
| --- | --- | --- | --- | --- | --- | --- | --- | --- |
| OACM5-1 (oesophagus, semi-adherent) | 0.984 | > 5 | 0.985 | > 1 | 0.985 | > 10 |  |  |
| OAW-28 (ovary, adherent) | 0.824 | 4.07 | 0.978 | > 1 | 0.77 | 4.83 | 0.796 | 3.14 |
| OAW-42 (ovary, adherent) | 0.899 | > 5 | 0.793 | 0.501 | 0.708 | 2.56 | 0.963 | > 5.12 |
| OCI-AML2 (acute myeloid leukaemia, suspension) | 0.994 | > 5 | 0.656 | 0.15 | 0.459 | 0.497 | 0.991 | > 5.12 |
| OCI-M1 (acute myeloid leukaemia, suspension) | 0.992 | > 5 | 0.785 | 0.326 | 0.676 | 1.69 | 0.995 | > 5.12 |
| OCUM-1 (stomach, adherent) | 0.966 | > 5 | 0.916 | > 1 | 0.747 | 3.52 | 0.976 | > 5.12 |
| OE19 (oesophagus, adherent) | 0.824 | 3.49 | 0.949 | > 1 | 0.948 | > 10 | 0.914 | > 5.12 |
| OE33 (oesophagus, adherent) | 0.894 | > 5 | 0.945 | > 1 | 0.881 | > 10 | 0.83 | 4.11 |
| OMC-1 (cervix, adherent) | 0.966 | > 5 | 0.786 | 0.452 | 0.952 | > 10 | 0.972 | > 5.12 |
| OPM-2 (myeloma, suspension) | 0.994 | > 5 | 0.984 | > 1 | 0.993 | > 10 | 0.971 | > 5.12 |
| OSC-19 (head and neck, adherent) | 0.936 | > 5 | 0.924 | > 1 | 0.944 | > 10 | 0.949 | > 5.12 |
| OSC-20 (head and neck, adherent) | 0.855 | > 5 | 0.884 | > 1 | 0.897 | > 10 | 0.812 | 3.39 |
| OVCAR-5 (ovary, adherent) | 0.976 | > 5 | 0.81 | 0.661 | 0.831 | 8.18 | 0.907 | > 5.12 |
| OVMIU (ovary, adherent) | 0.651 | 0.91 | 0.814 | 0.723 | 0.814 | 7.23 | 0.794 | 3.02 |
| P12-ICHIKAWA (T-cell lymphoblastic leukaemia, suspension) | 0.994 | > 5 | 0.914 | 0.867 | 0.915 | 8.8 | 0.954 | > 5.12 |
| P30-OHK (lymphoblastic leukaemia, suspension) | 0.793 | 1.87 | 0.853 | 0.589 | 0.322 | 0.219 | 0.701 | 1.05 |

| Cell Line | AUC (AZD6482; [1]) | IC50 (AZD6482; [1]) [µM] | AUC (MLN4924) | IC50 (MLN4924) [µM] | AUC (BMN-673) | IC50 (BMN-673) [µM] | AUC (AZD6482; [2]) | IC50 (AZD6482; [2]) [µM] |
| --- | --- | --- | --- | --- | --- | --- | --- | --- |
| P31-FUJ (acute myeloid leukaemia, suspension) | 0.994 | > 5 | 0.862 | 0.544 | 0.996 | > 10 | 0.996 | > 5.12 |
| P32-ISH (Burkitt lymphoma, suspension) | 0.978 | > 5 | 0.827 | 0.419 | 0.577 | 0.962 | 0.842 | 2.36 |
| PA-TU-8902 (pancreas, adherent) | 0.92 | > 5 | 0.843 | 0.89 | 0.811 | 6.42 | 0.965 | > 5.12 |
| PA-TU-8988T (pancreas, adherent) | 0.772 | 1.94 | 0.813 | 0.543 | 0.906 | > 10 | 0.928 | > 5.12 |
| PANC-03-27 (pancreas, adherent) | 0.885 | 4.84 | 0.717 | 0.245 | 0.843 | 6.42 | 0.877 | 4.57 |
| PANC-08-13 (pancreas, adherent) | 0.891 | > 5 | 0.981 | > 1 | 0.931 | > 10 | 0.89 | > 5.12 |
| PANC-10-05 (pancreas, adherent) | 0.915 | > 5 | 0.931 | > 1 | 0.93 | > 10 | 0.703 | 1.42 |
| PC-3 [JPC-3] (lung adenocarcinoma, adherent) | 0.914 | > 5 | 0.906 | > 1 | 0.924 | > 10 | 0.95 | > 5.12 |
| PCI-15A (head and neck, adherent) | 0.895 | > 5 | 0.799 | 0.486 | 0.771 | 3.88 | 0.896 | > 5.12 |
| PCI-38 (head and neck, adherent) | 0.944 | > 5 | 0.692 | 0.218 | 0.868 | 9.22 | 0.984 | > 5.12 |
| PE/CA-PJ15 (head and neck, adherent) | 0.941 | > 5 | 0.728 | 0.296 | 0.775 | 4.3 | 0.946 | > 5.12 |
| PF-382 (T-cell lymphoblastic leukaemia, suspension) | 0.975 | > 5 | 0.99 | > 1 | 0.99 | > 10 | 0.91 | > 5.12 |
| PL18 (pancreas, adherent) | 0.785 | 2.13 | 0.796 | 0.465 | 0.728 | 2.76 | 0.904 | > 5.12 |
| PSN1 (pancreas, adherent) | 0.973 | > 5 | 0.908 | > 1 | 0.606 | 1.16 | 0.991 | > 5.12 |
| QIMR-WIL (acute myeloid leukaemia, suspension) | 0.873 | 4.57 | 0.832 | 0.612 | 0.668 | 1.81 | 0.817 | 2.76 |
